The text below walks through data of paper PMC6893898, “Receptor Interaction Profiles of 4-Alkoxy-Substituted 2,5-Dimethoxyphenethylamines and Related Amphetamines” (Frontiers in Pharmacology, 2019).

The first test has as its target T1, 5-HT2A receptor (Homo sapiens, UniProt P28223). The experiment in a line: biochemical. In kind it is binding. Also noted: expressed in transfected cells; host or cells: HEK 293 (membrane preparation).
T1 sequence (P28223 whole entry): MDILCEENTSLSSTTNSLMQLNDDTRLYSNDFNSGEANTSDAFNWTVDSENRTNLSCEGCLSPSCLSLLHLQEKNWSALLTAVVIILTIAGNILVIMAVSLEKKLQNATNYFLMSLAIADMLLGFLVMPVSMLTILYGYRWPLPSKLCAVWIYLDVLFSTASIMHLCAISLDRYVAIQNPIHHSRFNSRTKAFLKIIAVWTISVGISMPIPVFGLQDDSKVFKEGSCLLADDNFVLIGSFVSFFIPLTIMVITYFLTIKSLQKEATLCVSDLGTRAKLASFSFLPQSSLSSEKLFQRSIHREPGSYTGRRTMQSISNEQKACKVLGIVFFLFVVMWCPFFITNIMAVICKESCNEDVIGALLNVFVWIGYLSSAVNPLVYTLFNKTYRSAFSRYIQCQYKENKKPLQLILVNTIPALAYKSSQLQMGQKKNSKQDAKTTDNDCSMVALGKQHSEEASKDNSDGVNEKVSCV
Conditions: not given
`COc1cc(OC)c(OC)cc1CC(C)N` (centres unmarked) [TMA-2, 2,4,5-trimethoxyamphetamine]: the Ki came out at 1.3 ± 0.7 µM.

The same test, now with this note: [3H]ketanserin; read-out: h5-HT2A Receptor binding Ki ± SD.
Turning to `CCOc1cc(OC)c(CCN)cc1OC` [2C-O-2, 2,5-dimethoxy-4-ethoxyphenethylamine], the Ki came to 0.67 ± 0.09 µM.
For the compound `C=C(C)COc1cc(OC)c(CCN)cc1OC` [2C-O-3, 2,5-dimethoxy-4-methallyloxyphenethylamine], the Ki stood at 0.04 ± 0.008 µM.
On the same count and under the same terms, as for `C=CCOc1cc(OC)c(CCN)cc1OC` [2C-O-16, 4-allyloxy-2,5-dimethoxyphenethylamine], the figure is 0.14 ± 0.04 µM.
On the same count and under the same terms, the value for `COc1cc(OCCF)c(OC)cc1CCN` [2C-O-21, 2,5-dimethoxy-4-(2-fluoroethoxy)phenethylamine] was 1.7 ± 0.6 µM.
Regarding `COc1cc(OCC(F)F)c(OC)cc1CCN` [2C-O-21.5, 4-(2,2-difluoroethoxy)-2,5-dimethoxyphenethylamine], the Ki was 1 ± 0.1 µM.
Still for that read-out and setting: as for `COc1cc(OCC(F)(F)F)c(OC)cc1CCN` [2C-O-22, 2,5-dimethoxy-4-(2,2,2-trifluoroethoxy)phenethylamine], the figure is 0.44 ± 0.06 µM.
On the same count and under the same terms, as for `COc1cc(OCc2ccccc2)c(OC)cc1CCN` [2C-O-27, 4-benzyloxy-2,5-dimethoxyphenethylamine], the figure is 0.0081 ± 0.001 µM; as for `C=CCOc1cc(OC)c(CC(C)N)cc1OC` (centres unmarked) [MALM, 4-allyloxy-2,5-dimethoxyamphetamine], 0.15 µM; as for `COc1cc(OCC(F)F)c(OC)cc1CC(C)N` (centres unmarked) [MDFEM, 4-(2,2-difluoroethoxy)-2,5-dimethoxyamphetamine], 0.98 ± 0.62 µM.
As to `COc1cc(OCCF)c(OC)cc1CC(C)N` (centres unmarked) [MFEM, 2,5-dimethoxy-4-(2-fluoroethoxy)amphetamine], the Ki amounted to 1.9 ± 0.9 µM.
Still for that read-out and setting: the value for `COc1cc(OC(C)C)c(OC)cc1CC(C)N` (centres unmarked) [MIPM, 2,5-dimethoxy-4-isopropoxyamphetamine] was 4.4 ± 2.1 µM; that for `C=C(C)COc1cc(OC)c(CC(C)N)cc1OC` (centres unmarked) [MMALM, 2,5-dimethoxy-4-methallyloxyamphetamine] was 0.061 µM.
Same read-out and setting: as for `COc1cc(OCC(F)(F)F)c(OC)cc1CC(C)N` (centres unmarked) [MTFEM, 2,5-dimethoxy-4-(2,2,2-trifluoroethoxy)amphetamine], the figure is 0.46 ± 0.24 µM.

The same test, now with this note: binding ratio.
Consider `CCOc1cc(OC)c(CCN)cc1OC` [2C-O-2, 2,5-dimethoxy-4-ethoxyphenethylamine], for which the “Selectivity (binding ratios) 5-HT2A/5-HT1A” value came to 5.4 and the “Selectivity (binding ratios) 5-HT2A/5-HT2C” value is recorded as 3.4.
For `C=C(C)COc1cc(OC)c(CCN)cc1OC` [2C-O-3, 2,5-dimethoxy-4-methallyloxyphenethylamine] the same measures were 68 and 3.8.
Turning to `C=CCOc1cc(OC)c(CCN)cc1OC` [2C-O-16, 4-allyloxy-2,5-dimethoxyphenethylamine], the “Selectivity (binding ratios) 5-HT2A/5-HT1A” value is listed as 32 and the “Selectivity (binding ratios) 5-HT2A/5-HT2C” value was determined as 3.4.
For `COc1cc(OCCF)c(OC)cc1CCN` [2C-O-21, 2,5-dimethoxy-4-(2-fluoroethoxy)phenethylamine] the same measures were 3.2 and 2.1.
In the same order, the values of `COc1cc(OCC(F)F)c(OC)cc1CCN` [2C-O-21.5, 4-(2,2-difluoroethoxy)-2,5-dimethoxyphenethylamine] are 2.9 and 4.2.
In the same order, the values of `COc1cc(OCC(F)(F)F)c(OC)cc1CCN` [2C-O-22, 2,5-dimethoxy-4-(2,2,2-trifluoroethoxy)phenethylamine] are 7.5 and 4.3.
With `COc1cc(OCc2ccccc2)c(OC)cc1CCN` [2C-O-27, 4-benzyloxy-2,5-dimethoxyphenethylamine], the “Selectivity (binding ratios) 5-HT2A/5-HT1A” value is 333 and the “Selectivity (binding ratios) 5-HT2A/5-HT2C” value was found to be 14.
With `C=CCOc1cc(OC)c(CC(C)N)cc1OC` (centres unmarked) [MALM, 4-allyloxy-2,5-dimethoxyamphetamine], the “Selectivity (binding ratios) 5-HT2A/5-HT1A” value was above 37 and the “Selectivity (binding ratios) 5-HT2A/5-HT2C” value was found to be 6.
In the same order, the values of `COc1cc(OCC(F)F)c(OC)cc1CC(C)N` (centres unmarked) [MDFEM, 4-(2,2-difluoroethoxy)-2,5-dimethoxyamphetamine] are above 5.7 and 6.8.
For `COc1cc(OCCF)c(OC)cc1CC(C)N` (centres unmarked) [MFEM, 2,5-dimethoxy-4-(2-fluoroethoxy)amphetamine], the “Selectivity (binding ratios) 5-HT2A/5-HT1A” value is recorded as above 2.9 and the “Selectivity (binding ratios) 5-HT2A/5-HT2C” value was 5.8.
For `COc1cc(OC(C)C)c(OC)cc1CC(C)N` (centres unmarked) [MIPM, 2,5-dimethoxy-4-isopropoxyamphetamine] the same measures were above 1.4 and 2.1.
On to `C=C(C)COc1cc(OC)c(CC(C)N)cc1OC` (centres unmarked) [MMALM, 2,5-dimethoxy-4-methallyloxyamphetamine], for which the “Selectivity (binding ratios) 5-HT2A/5-HT2C” value amounted to 4.8.
Take `COc1cc(OCC(F)(F)F)c(OC)cc1CC(C)N` (centres unmarked) [MTFEM, 2,5-dimethoxy-4-(2,2,2-trifluoroethoxy)amphetamine]: the “Selectivity (binding ratios) 5-HT2A/5-HT1A” value was above 12 and the “Selectivity (binding ratios) 5-HT2A/5-HT2C” value is on record as 5.2.

In the next test the target is T1, 5-HT2A receptor. The test is described as follows: Activity at the 5-HT2A receptor (FLIPR calcium, NIH-3T3 cells). In kind it is cell-based.
Conditions: not given
More on the design: expressed in transfected cells; host or cells: NIH-3T3 mouse embryonic fibroblasts.
Turning to `CCOc1cc(OC)c(CCN)cc1OC` [2C-O-2, 2,5-dimethoxy-4-ethoxyphenethylamine], the EC50 (commonly the concentration that produces a half-maximal response) came out at 0.016 ± 0.003 µM.
`C=C(C)COc1cc(OC)c(CCN)cc1OC` [2C-O-3, 2,5-dimethoxy-4-methallyloxyphenethylamine]: the EC50 is 0.0005 ± 0.0003 µM and the “Higher 5-HT2A activation potency than 2C-B” value is recorded as 4 fold.
`C=CCOc1cc(OC)c(CCN)cc1OC` [2C-O-16, 4-allyloxy-2,5-dimethoxyphenethylamine]: the EC50 is 0.0049 ± 0.0025 µM.
Still for that read-out and setting: as for `COc1cc(OCCF)c(OC)cc1CCN` [2C-O-21, 2,5-dimethoxy-4-(2-fluoroethoxy)phenethylamine], the figure is 0.053 ± 0.015 µM; as for `COc1cc(OCC(F)F)c(OC)cc1CCN` [2C-O-21.5, 4-(2,2-difluoroethoxy)-2,5-dimethoxyphenethylamine], 2.6 ± 1.6 µM; as for `COc1cc(OCC(F)(F)F)c(OC)cc1CCN` [2C-O-22, 2,5-dimethoxy-4-(2,2,2-trifluoroethoxy)phenethylamine], 0.46 ± 0.14 µM.
For `COc1cc(OCc2ccccc2)c(OC)cc1CCN` [2C-O-27, 4-benzyloxy-2,5-dimethoxyphenethylamine], the EC50 came to 0.076 ± 0.08 µM.
As to `C=CCOc1cc(OC)c(CC(C)N)cc1OC` (centres unmarked) [MALM, 4-allyloxy-2,5-dimethoxyamphetamine], the EC50 is 0.0029 ± 0.0005 µM and the “Increase in 5-HT2A activation potency compared to 19” value is given as 66 fold.
On to `COc1cc(OCC(F)F)c(OC)cc1CC(C)N` (centres unmarked) [MDFEM, 4-(2,2-difluoroethoxy)-2,5-dimethoxyamphetamine], for which the EC50 was 0.14 ± 0.08 µM and the “Increase in 5-HT2A activation potency compared to 15” value was found to be 2 fold.
With `COc1cc(OCCF)c(OC)cc1CC(C)N` (centres unmarked) [MFEM, 2,5-dimethoxy-4-(2-fluoroethoxy)amphetamine], the EC50 is 0.33 ± 0.18 µM.
Still for that read-out and setting: as for `COc1cc(OC(C)C)c(OC)cc1CC(C)N` (centres unmarked) [MIPM, 2,5-dimethoxy-4-isopropoxyamphetamine], the figure is 0.99 ± 0.33 µM; as for `C=C(C)COc1cc(OC)c(CC(C)N)cc1OC` (centres unmarked) [MMALM, 2,5-dimethoxy-4-methallyloxyamphetamine], 0.0015 ± 0.0001 µM.
Regarding `COc1cc(OCC(F)(F)F)c(OC)cc1CC(C)N` (centres unmarked) [MTFEM, 2,5-dimethoxy-4-(2,2,2-trifluoroethoxy)amphetamine], the concentration giving a half-maximal response (EC50) amounted to 0.019 ± 0.001 µM and the “Increase in 5-HT2A activation potency compared to 15” value was determined as 17 fold.
Regarding `COc1cc(OC)c(OC)cc1CC(C)N` (centres unmarked) [TMA-2, 2,4,5-trimethoxyamphetamine], the concentration giving a half-maximal response (EC50) came to 0.19 ± 0.09 µM.

The test is the same for the next values; noted with them: NIH3T3, relative to 5-HT = 100%; read-out: h5-HT2A Activation efficacy max ± SD.
Regarding `CCOc1cc(OC)c(CCN)cc1OC` [2C-O-2, 2,5-dimethoxy-4-ethoxyphenethylamine], the Emax turned out to be 50 ± 10%.
On to `C=C(C)COc1cc(OC)c(CCN)cc1OC` [2C-O-3, 2,5-dimethoxy-4-methallyloxyphenethylamine], for which the Emax was found to be 70 ± 4%.
The same measure, in the same setting: as for `C=CCOc1cc(OC)c(CCN)cc1OC` [2C-O-16, 4-allyloxy-2,5-dimethoxyphenethylamine], the figure is 84 ± 4%.
As for `COc1cc(OCCF)c(OC)cc1CCN` [2C-O-21, 2,5-dimethoxy-4-(2-fluoroethoxy)phenethylamine], the Emax is 44 ± 17%.
Take `COc1cc(OCC(F)F)c(OC)cc1CCN` [2C-O-21.5, 4-(2,2-difluoroethoxy)-2,5-dimethoxyphenethylamine]: the Emax was 30 ± 8%.
For the compound `COc1cc(OCC(F)(F)F)c(OC)cc1CCN` [2C-O-22, 2,5-dimethoxy-4-(2,2,2-trifluoroethoxy)phenethylamine], the Emax stood at 35 ± 8%.
Still for that read-out and setting: the value for `COc1cc(OCc2ccccc2)c(OC)cc1CCN` [2C-O-27, 4-benzyloxy-2,5-dimethoxyphenethylamine] was 36 ± 16%; that for `C=CCOc1cc(OC)c(CC(C)N)cc1OC` (centres unmarked) [MALM, 4-allyloxy-2,5-dimethoxyamphetamine] was 89%; that for `COc1cc(OCC(F)F)c(OC)cc1CC(C)N` (centres unmarked) [MDFEM, 4-(2,2-difluoroethoxy)-2,5-dimethoxyamphetamine] was 48 ± 23%.
For `COc1cc(OCCF)c(OC)cc1CC(C)N` (centres unmarked) [MFEM, 2,5-dimethoxy-4-(2-fluoroethoxy)amphetamine], the Emax is 56 ± 36%.
Same read-out and setting: the value for `COc1cc(OC(C)C)c(OC)cc1CC(C)N` (centres unmarked) [MIPM, 2,5-dimethoxy-4-isopropoxyamphetamine] was 47 ± 13%; that for `C=C(C)COc1cc(OC)c(CC(C)N)cc1OC` (centres unmarked) [MMALM, 2,5-dimethoxy-4-methallyloxyamphetamine] was 95%.
The same measure, in the same setting: as for `COc1cc(OCC(F)(F)F)c(OC)cc1CC(C)N` (centres unmarked) [MTFEM, 2,5-dimethoxy-4-(2,2,2-trifluoroethoxy)amphetamine], the figure is 80 ± 6%; as for `COc1cc(OC)c(OC)cc1CC(C)N` (centres unmarked) [TMA-2, 2,4,5-trimethoxyamphetamine], 84 ± 10%.

The same test, now with this note: higher EC50.
`COc1cc(OCC(F)F)c(OC)cc1CCN` [2C-O-21.5, 4-(2,2-difluoroethoxy)-2,5-dimethoxyphenethylamine]: the “5-HT2A activation potency (EC50) higher than for 2C-O-21 (9)” value was 50 fold and the “5-HT2A activation potency (EC50) higher than for 2C-O-22 (11)” value stood at 6 fold.

A further test addresses T1, 5-HT2A receptor.
Experiment: not given
Also noted: expressed in transfected cells; host or cells: HEK 293 (membrane preparation). Particulars: [3H]ketanserin; ref Luethi et al., 2018; read-out: h5-HT2A Receptor binding Ki ± SD; cited from earlier work.
`COc1cc(CCN)c(OC)cc1Br` [2C-B, 4-bromo-2,5-dimethoxyphenethylamine]: the Ki is 0.0069 ± 0.0018 µM.

Staying with this test, now noted: ref Rickli et al., 2015; read-out: 5-HT2A receptor binding affinity; cited from earlier work.
As to `COc1cc(CCN)cc(OC)c1OC` [mescaline, 3,4,5-trimethoxyphenethylamine], the Ki was 6.3 µM.

Another test deals with T1, 5-HT2A receptor.
Experiment: not given
Also noted: expressed in transfected cells; host or cells: NIH-3T3 mouse embryonic fibroblasts; method as in Luethi et al., 2018. Particulars: read-out: h5-HT2A Activation potency EC50 ± SD; ref Luethi et al., 2018; cited from earlier work.
For `COc1cc(CCN)c(OC)cc1Br` [2C-B, 4-bromo-2,5-dimethoxyphenethylamine], the EC50 is 0.0021 ± 0.0008 µM.

The same test, now with this note: relative to 5-HT; ref Luethi et al., 2018; cited from earlier work.
As to `COc1cc(CCN)c(OC)cc1Br` [2C-B, 4-bromo-2,5-dimethoxyphenethylamine], the “h5-HT2A Activation efficacy max ± SD” value is listed as 92 ± 8%.
